# Test results from publication PMC5892938.
# The other results are listed elsewhere or left out. At the low end of the ranking the order means little.
# Target: GST-SBP-SLBP (stem-loop binding protein) (UniProt Q14493)
# Experiment: targeted RNA Bind-n-Seq;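 note: DESeq read counts versus GST-SBP nonspecific binding control pulldown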
# Settings: RBNS binding buffer: 25 mM Tris pH 7.5, 150 mM KCl, 3 mM MgCl2, 0.1% Tween, 0.5 mg/mL BSA, 1 mM DTT; 27 nM protein, 750 pM RNA pool; temperature not stated; high values mean tight binding
row,Sequence,binding signal (log2 fold change)
1,GGUCACGUCUCAAUCAACUCAACUUCCAGGGAAAGCCCUGGUAUACUCAACAGCUCGCAGUCAAG,0.282
2,GGUCACGUCUCAAUCAACUCAAUCCCAGGAGUUUGCUCCUGCUUAUUCAACAGCUCGCAGUCAAG,0.0422
3,GGUCACGUCUCAAUCAACUCCUUAGAGGGGGGGAAAACCCCUUUACCCUCAAUCUCAACAGCUCGCAGUCAAG,-0.444
4,GGUCACGUCUCAAUCAACUCAACUUCAGGAGUUUGCUCCUGCAUAUUCAACAGCUCGCAGUCAAG,0.171
5,GGUCACGUCUCAAUCAACUCUCUCGAGGGGGGGAAAACCCCUUUACCCUCUCCAUCAACAGCUCGCAGUCAAG,0.264
6,GGUCACGUCUCAAUCAACUCAUUUCCAGGAGUUUCCUCCUGCUUAUUCAACAGCUCGCAGUCAAG,0.0717
7,GGUCACGUCUCAAUCAACUCUUACGAGGGGGGGAAAACCCCUUUACCCUCAUACUCAACAGCUCGCAGUCAAG,-0.18
8,GGUCACGUCUCAAUCAACUCAUCGGAGGGGGGGAAAACCCCUUUACCCUCGUCAUCAACAGCUCGCAGUCAAG,0.139
9,GGUCACGUCUCAAUCAACUCUUCCCCCAGGGAAAACCCUGGUAUAUUCAACAGCUCGCAGUCAAG,0.0445
10,GGUCACGUCUCAAUCAACUCAUUUUCAGGAGUUUUCUCCUGCUUACUCAACAGCUCGCAGUCAAG,0.0742
11,GGUCACGUCUCAAUCAACUCUUUUCCAGGAGUUUCCUCCUGUUUACUCAACAGCUCGCAGUCAAG,0.0449
12,GGUCACGUCUCAAUCAACUCUAUCCCCAGGGAAAGCCCUGGUAUUUUCAACAGCUCGCAGUCAAG,0.00742
13,GGUCACGUCUCAAUCAACUCAUCCUCCAGGGAAAGCCCUGGCUAUUUCAACAGCUCGCAGUCAAG,0.141
14,GGUCACGUCUCAAUCAACUCAGUCUCCAGGGAAAACCCUGGCUAUUUCAACAGCUCGCAGUCAAG,0.29
15,GGUCACGUCUCAAUCAACUCCCCGGAGGGGGGGAAAACCCCUUUACCCUCACUUUCAACAGCUCGCAGUCAAG,-0.181
16,GGUCACGUCUCAAUCAACUCUACUCCAGGAGUUUCCUCCUGUAAACUCAACAGCUCGCAGUCAAG,0.0533
17,GGUCACGUCUCAAUCAACUCAAUCGAGGGGGGGAAAACCCCUUUGCCCUCACUUUCAACAGCUCGCAGUCAAG,0.594
18,GGUCACGUCUCAAUCAACUCACAAGAGGGGGGGAAAACCCCUUUACCCUCACACUCAACAGCUCGCAGUCAAG,-0.599
19,GGUCACGUCUCAAUCAACUCAAUCUCCAGGGAAACCCCUGGCUUUCUCAACAGCUCGCAGUCAAG,0.293
20,GGUCACGUCUCAAUCAACUCUUCUCCAGGAGUUUCCUCCUGUAUAUUCAACAGCUCGCAGUCAAG,-0.0305
21,GGUCACGUCUCAAUCAACUCAACUCCCAGGGAAAACCCUGGCAUACUCAACAGCUCGCAGUCAAG,-0.165
22,GGUCACGUCUCAAUCAACUCAGUCUCCAGGGAAACCCCUGGCUAUUUCAACAGCUCGCAGUCAAG,-0.146
23,GGUCACGUCUCAAUCAACUCUUUUCCAGGAGUUUACUCCUGUUUAUUCAACAGCUCGCAGUCAAG,0.0243
24,GGUCACGUCUCAAUCAACUCCCUAGAGGGGGGGAAAACCCCUUUACCCUCCUUAUCAACAGCUCGCAGUCAAG,-0.311
25,GGUCACGUCUCAAUCAACUCUUAAGAGGGGGGGAAAACCCCUUUGCCCUCAAUCUCAACAGCUCGCAGUCAAG,-0.0452

row,Sequence,binding signal (log2 fold change)
1,GGUCACGUCUCAAUCAACUCCCCAGAGGGGGGGAAAACCCCUUUGCCCUCCACAUCAACAGCUCGCAGUCAAG,-0.595
2,GGUCACGUCUCAAUCAACUCUAUCUCCAGGGAAACCCCUGGUUAACUCAACAGCUCGCAGUCAAG,0.0218
3,GGUCACGUCUCAAUCAACUCUAUCCCCAGGGAAACCCCUGGUAAUCUCAACAGCUCGCAGUCAAG,-0.0453
4,GGUCACGUCUCAAUCAACUCCAACGAGGGGGGGAAAACCCCUUUACCCUCUCAAUCAACAGCUCGCAGUCAAG,-0.0591
5,GGUCACGUCUCAAUCAACUCAAUUCCCAGGGAAAUCCCUGGUUAACUCAACAGCUCGCAGUCAAG,0.279
6,GGUCACGUCUCAAUCAACUCAUCGCCCAGGGAAACCCCUGGUAUUCUCAACAGCUCGCAGUCAAG,-0.0661
7,GGUCACGUCUCAAUCAACUCUAAAGAGGGGGGGAAAACCCCUUUGCCCUCACAUUCAACAGCUCGCAGUCAAG,-0.157
8,GGUCACGUCUCAAUCAACUCUUUCCCCAGGGAAAACCCUGGUAAACUCAACAGCUCGCAGUCAAG,-0.0108
9,GGUCACGUCUCAAUCAACUCUAUUUCAGGAGUUUACUCCUGCUAAUUCAACAGCUCGCAGUCAAG,-0.143
10,GGUCACGUCUCAAUCAACUCAUUAGAGGGGGGGAAAACCCCUUUGCCCUCCACAUCAACAGCUCGCAGUCAAG,-0.189
11,GGUCACGUCUCAAUCAACUCUUCUUCCAGGGAAACCCCUGGCUAUCUCAACAGCUCGCAGUCAAG,-0.162
12,GGUCACGUCUCAAUCAACUCUAUCUCAGGAGUUUACUCCUGUAUAUUCAACAGCUCGCAGUCAAG,0.337
13,GGUCACGUCUCAAUCAACUCUUUUCCAGGAGUUUUCUCCUGCAUAUUCAACAGCUCGCAGUCAAG,-0.111
14,GGUCACGUCUCAAUCAACUCAAUCUCCAGGGAAAGCCCUGGCAAACUCAACAGCUCGCAGUCAAG,-0.215
15,GGUCACGUCUCAAUCAACUCUUCCUCCAGGGAAACCCCUGGUUUACUCAACAGCUCGCAGUCAAG,0.0642
16,GGUCACGUCUCAAUCAACUCCCUAGAGGGGGGGAAAACCCCUUUGCCCUCCAAUUCAACAGCUCGCAGUCAAG,-0.619
17,GGUCACGUCUCAAUCAACUCCUCAGAGGGGGGGAAAACCCCUUUACCCUCAUCAUCAACAGCUCGCAGUCAAG,0.0549
18,GGUCACGUCUCAAUCAACUCAUUUCCCAGGGAAAACCCUGGUAUACUCAACAGCUCGCAGUCAAG,-0.0595
19,GGUCACGUCUCAAUCAACUCAAUUCCCAGGGAAAGCCCUGGCAAAUUCAACAGCUCGCAGUCAAG,0.238
20,GGUCACGUCUCAAUCAACUCCCUGGAGGGGGGGAAAACCCCUUUACCCUCAAUUUCAACAGCUCGCAGUCAAG,-0.0866
21,GGUCACGUCUCAAUCAACUCUUACGAGGGGGGGAAAACCCCUUUACCCUCAAAUUCAACAGCUCGCAGUCAAG,0.37
22,GGUCACGUCUCAAUCAACUCUUCUUCAGGAGUUUUCUCCUGCUAUUUCAACAGCUCGCAGUCAAG,-0.0942
23,GGUCACGUCUCAAUCAACUCUAACGAGGGGGGGAAAACCCCUUUGCCCUCAAUAUCAACAGCUCGCAGUCAAG,-0.0749
24,GGUCACGUCUCAAUCAACUCUACUCCAGGAGUUUACUCCUGUUUUCUCAACAGCUCGCAGUCAAG,0.0252
25,GGUCACGUCUCAAUCAACUCUUCUUCAGGAGUUUCCUCCUGCAUACUCAACAGCUCGCAGUCAAG,-0.00215

row,Sequence,binding signal (log2 fold change)
1,GGUCACGUCUCAAUCAACUCAAUUUCCAGGGAAACCCCUGGCUAAUUCAACAGCUCGCAGUCAAG,0.267
2,GGUCACGUCUCAAUCAACUCUAUUUCAGGAGUUUUCUCCUGCUAAUUCAACAGCUCGCAGUCAAG,0.122
3,GGUCACGUCUCAAUCAACUCCAUAGAGGGGGGGAAAACCCCUUUGCCCUCACAUUCAACAGCUCGCAGUCAAG,0.0945
4,GGUCACGUCUCAAUCAACUCAUUUUCAGGAGUUUCCUCCUGUUUAGUCAACAGCUCGCAGUCAAG,0.152
5,GGUCACGUCUCAAUCAACUCAAUUUCCAGGGAAAUCCCUGGUAUUCUCAACAGCUCGCAGUCAAG,0.000395
6,GGUCACGUCUCAAUCAACUCUAAAGAGGGGGGGAAAACCCCUUUACCCUCCACGUCAACAGCUCGCAGUCAAG,-0.4
7,GGUCACGUCUCAAUCAACUCUUCCUCAGGAGUUUUCUCCUGCAAUUUCAACAGCUCGCAGUCAAG,0.0289
8,GGUCACGUCUCAAUCAACUCUUUCCCCAGGGAAAACCCUGGCAUUUUCAACAGCUCGCAGUCAAG,0.0252
9,GGUCACGUCUCAAUCAACUCACAAGAGGGGGGGAAAACCCCUUUACCCUCACUUUCAACAGCUCGCAGUCAAG,0.0526
10,GGUCACGUCUCAAUCAACUCACAAGAGGGGGGGAAAACCCCUUUACCCUCCCAUUCAACAGCUCGCAGUCAAG,0.0207
11,GGUCACGUCUCAAUCAACUCUUUUUCCAGGGAAAACCCUGGUAAUUUCAACAGCUCGCAGUCAAG,-0.111
12,GGUCACGUCUCAAUCAACUCAAUCCCCAGGGAAAACCCUGGUAAACUCAACAGCUCGCAGUCAAG,-0.148
13,GGUCACGUCUCAAUCAACUCAAUCCCAGGAGUUUCCUCCUGCAAUUUCAACAGCUCGCAGUCAAG,0.0931
14,GGUCACGUCUCAAUCAACUCUUCGUCAGGAGUUUCCUCCUGUAAUCUCAACAGCUCGCAGUCAAG,-0.0718
15,GGUCACGUCUCAAUCAACUCAAUCUCCAGGGAAACCCCUGGUAUAUUCAACAGCUCGCAGUCAAG,-0.0637
16,GGUCACGUCUCAAUCAACUCUCAAGAGGGGGGGAAAACCCCUUUACCCUCAAAAUCAACAGCUCGCAGUCAAG,-0.259
17,GGUCACGUCUCAAUCAACUCUUCUCCAGGAGUUUCCUCCUGCAUUCUCAACAGCUCGCAGUCAAG,0.163
18,GGUCACGUCUCAAUCAACUCAAUUCCAGGAGUUUACUCCUGUAUUUUCAACAGCUCGCAGUCAAG,0.123
19,GGUCACGUCUCAAUCAACUCAAUCUCAGGAGUUUACUCCUGUUUACUCAACAGCUCGCAGUCAAG,0.227
20,GGUCACGUCUCAAUCAACUCUUUCCCAGGAGUUUCCUCCUGUAUAUUCAACAGCUCGCAGUCAAG,-0.0755
21,GGUCACGUCUCAAUCAACUCAUUCCCAGGAGUUUUCUCCUGCUAUCUCAACAGCUCGCAGUCAAG,-0.0191
22,GGUCACGUCUCAAUCAACUCAGUCUCCAGGGAAAACCCUGGCAAAUUCAACAGCUCGCAGUCAAG,0.13
23,GGUCACGUCUCAAUCAACUCUUCUUCAGGAGUUUCCUCCUGCAAUUUCAACAGCUCGCAGUCAAG,0.135
